# ± gives the standard deviation of the averaged measurements. Over roughly 33,000 sequences, “E-score (dimensionless, -0.5 to 0.5)” has its median near -0.046; the highest 2% begin near 0.36. The list shows a part of the results.
# Test system: T1, SpTbr T-box DNA-binding domain (GST fusion)
# T1 sequence: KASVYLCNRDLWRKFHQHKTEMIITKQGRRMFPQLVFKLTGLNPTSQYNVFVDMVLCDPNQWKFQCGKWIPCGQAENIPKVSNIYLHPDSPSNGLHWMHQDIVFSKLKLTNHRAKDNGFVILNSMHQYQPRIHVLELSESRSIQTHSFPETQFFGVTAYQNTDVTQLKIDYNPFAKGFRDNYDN
# Assay: PBM E-score of 8-mer (E-score (dimensionless, -0.5 to 0.5)); Tbr is Tbrain of the sea star Patiria miniata (Pm) or the sea urchin Strongylocentrotus purpuratus (Sp); higher = stronger binding preference; most listed sequences are background and not binding sites
# Settings: the construct has about 5 more residues each side
# Method in brief: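 Expression of GST-fused Tbr T-box DNA-binding domains, each holding the full T-box plus roughly five flanking residues, was carried out in BL21 E. coli at 20 °C, with purification by glutathione affinity chromatography. Universal Agilent arrays made double-stranded by primer extension were incubated with the protein at 200 nM in PBS (pH 7.5), then scanned and quantified. All ungapped 8-mers were scored from probe intensities, and each received an enrichment E-score from the Universal PBM Analysis Suite, averaged over duplicate arrays.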
row,Sequence,PBM E-score of 8-mer
1,CCGATAGC,0.146 ± 0.036
2,AGGAGTAT,-0.223 ± 0.0026
3,AACATGGA,-0.0817 ± 0.015
4,GGGATAGA,-0.105 ± 0.048
5,GATGTGCC,0.109 ± 0.0022
6,GACCTGGC,-0.0497 ± 0.02
7,AAGAAGAC,-0.26 ± 0.033
8,CAGAATTC,-0.221 ± 0.0065
9,AACCCACA,0.255 ± 0.0092
10,CCCGATCA,-0.0783 ± 0.071
11,CACAGTGG,0.10376 ± 5.7e-05
12,GGACCGAC,-0.266 ± 0.043
13,ACGACTTC,-0.0729 ± 0.027
14,GGCGTACA,-0.194 ± 0.09
15,ATATTCAC,0.32 ± 0.028
16,CCACGTCC,-0.0592 ± 0.004
17,CACTTATC,0.2997 ± 0.0029
18,CTGGGCAA,-0.0664 ± 0.0081
19,CAATTTAA,-0.105 ± 0.045
20,ACTGGTAG,0.044 ± 0.013
21,CAAGGGGC,-0.144 ± 0.015
22,AAGACGCG,-0.0698 ± 0.056
23,ACATCCGA,-0.0634 ± 0.053
24,TAATGACA,0.16 ± 0.017
25,ACACAATG,0.145 ± 0.029

row,Sequence,PBM E-score of 8-mer
1,CGGTTCTC,0.112 ± 0.029
2,CCGCTACG,-0.226 ± 0.0084
3,GAGGCACC,-0.0756 ± 0.035
4,ACCTGTTG,0.293 ± 0.0091
5,CGTGTTGC,0.228 ± 0.0076
6,CGATCGCG,0.297 ± 0.063
7,AGTAACTG,0.0261 ± 0.035
8,ACGGACAA,-0.0712 ± 0.016
9,AGCAAACT,0.0268 ± 0.0054
10,AAAATAGC,0.141 ± 0.0033
11,ACTTTTTC,0.0987 ± 0.0086
12,CAGCCTCA,-0.103 ± 0.12
13,GACCTTAC,-0.286 ± 0.0076
14,CGTGAATA,0.316 ± 0.024
15,CCCTATAC,-0.295 ± 0.038
16,CCCGGTGC,-0.114 ± 0.013
17,ATTGGCGG,0.0161 ± 0.057
18,ACCCCAAG,0.0279 ± 0.13
19,ATCGGACA,0.0309 ± 0.026
20,CGGAAGCA,-0.189 ± 0.015
21,CGGATTAG,-0.185 ± 0.026
22,GCGGCTGA,0.0162 ± 0.094
23,TCCGCAAA,-0.0601 ± 0.0079
24,AACGTCCA,-0.241 ± 0.014
25,AAGATCTA,0.0306 ± 0.046

row,Sequence,PBM E-score of 8-mer
1,CGGCGGTA,-0.1368 ± 0.00034
2,GGGAAGGA,-0.248 ± 0.03
3,GTTATAGA,-0.0442 ± 0.027
4,AAAAAATG,-0.186 ± 0.059
5,CCAACGGC,-0.0264 ± 0.036
6,ATCTAACA,0.175 ± 0.06
7,ATGGAGCG,-0.0677 ± 0.051
8,TAGTTCAA,-0.0579 ± 0.0051
9,CCTATACG,0.00809 ± 0.051
10,AGTGGTCG,-0.0278 ± 0.03
11,GGAGTCCC,-0.0741 ± 0.049
12,AACTCACG,0.00507 ± 0.019
13,TAGTGAGA,0.209 ± 0.089
14,GGGGCCGA,-0.0294 ± 0.038
15,CTGTGGCA,0.102 ± 0.048
16,TAGATCCA,-0.288 ± 0.061
17,AAGGTACT,-0.159 ± 0.089
18,ACTATCAC,0.292 ± 0.044
19,CGTGATTC,0.0347 ± 0.022
20,ACGGGGGC,0.00886 ± 0.057
21,TCGCCACA,0.321 ± 0.039
22,CATAGTAA,-0.171 ± 0.074
23,CCTTTGAA,-0.249 ± 0.025
24,ACTCCCCT,-0.165 ± 0.004
25,CGCCACAA,0.0762 ± 0.081

row,Sequence,PBM E-score of 8-mer
1,CAAAGTGC,0.226 ± 0.079
2,GATCCTAC,-0.206 ± 0.064
3,ATCTCTGG,-0.165 ± 0.098
4,CGCTGGTC,0.0997 ± 0.051
5,AGGTGTAA,0.475 ± 0.011
6,TGGTGACA,0.39 ± 0.0062
7,CCAGACAG,-0.133 ± 0.039
8,ATCGCGAT,0.364 ± 0.011
9,ATCTGGCG,0.0377 ± 0.0091
10,ACTCGTAA,0.0173 ± 0.02
11,CCTGTTAG,0.221 ± 0.036
12,GAGGCGGA,-0.00262 ± 0.017
13,CCAACAGC,0.165 ± 0.027
14,AAGTACCC,-0.202 ± 0.061
15,CATATATC,-0.251 ± 0.017
16,GCCCACGA,-0.00758 ± 0.07
17,AATACCCG,-0.0699 ± 0.03
18,CTGGCAAA,-0.138 ± 0.027
19,ATCTTCGA,-0.126 ± 0.014
20,GTGCGATA,0.427 ± 0.0042
21,ACTATGTA,0.093 ± 0.031
22,ATGACTTG,-0.0315 ± 0.04
23,ACTCCAAT,-0.115 ± 0.019
24,GCGTGAAA,0.4597 ± 0.0039
25,TCCTCCAA,-0.113 ± 0.021

row,Sequence,PBM E-score of 8-mer
1,CTGAACTC,-0.00299 ± 0.0053
2,GAGTGTGC,0.296 ± 0.015
3,ATGACTGC,-0.176 ± 0.014
4,GAGAATGC,0.0866 ± 0.093
5,CCCCAAGC,-0.0248 ± 0.0081
6,CGGCCGAG,-0.107 ± 0.042
7,ACAACGCC,0.0994 ± 0.0078
8,TCAATAGA,-0.1 ± 0.035
9,CCTAGGGA,-0.214 ± 0.017
10,GAGCGCCC,-0.156 ± 0.12
11,CACAATTC,0.233 ± 0.011
12,TACATAAA,-0.174 ± 0.0034
13,AGCGAGTC,0.0305 ± 0.044
14,AGTGCAAG,0.0816 ± 0.059
15,ATGGCCTC,-0.202 ± 0.025
16,AACCGAGC,-0.00754 ± 0.025
17,GGCAGGAA,0.0496 ± 0.023
18,GTACGGTA,-0.191 ± 0.013
19,ACCAAGAC,0.0459 ± 0.089
20,ATCCGAAA,-0.0782 ± 0.078
21,TAGCCTAA,-0.0895 ± 0.044
22,GTAGGGAC,-0.222 ± 0.024
23,ACTGGTGC,0.0433 ± 0.034
24,GAGGCGGC,-0.0529 ± 0.087
25,CATATGAG,-0.0764 ± 0.067

row,Sequence,PBM E-score of 8-mer
1,CGCTGAAA,-0.196 ± 0.005
2,AGCTATAT,0.0355 ± 0.024
3,TCAATTCA,0.0683 ± 0.018
4,GCCTCCTA,-0.102 ± 0.035
5,GGGCGAGA,0.222 ± 0.0041
6,CCCTTCCC,-0.195 ± 0.045
7,CTCTTCGA,0.0979 ± 0.038
8,CCGCGAGG,0.0756 ± 0.063
9,AGTCTCCC,-0.149 ± 0.013
10,AGCGGACG,-0.0886 ± 0.041
11,GCTGGACA,0.0335 ± 0.046
12,AAAAAACC,-0.0953 ± 0.011
13,TGGGACCA,-0.11 ± 0.029
14,AGAGCCAA,-0.0561 ± 0.026
15,CTAAGACC,-0.128 ± 0.049
16,CTCCATAA,-0.257 ± 0.031
17,AAGTGCCG,0.2891 ± 0.0011
18,CAGGAAGC,-0.243 ± 0.042
19,GCGTGCAA,0.184 ± 0.014
20,AGTGCCAC,0.25 ± 0.013
21,AAAACCGG,-0.178 ± 0.015
22,AAGCTGGG,-0.0949 ± 0.031
23,AGATGTCC,-0.309 ± 0.003
24,GAGTAAAA,0.0191 ± 0.06
25,ACTAAATG,0.024 ± 0.056

row,Sequence,PBM E-score of 8-mer
1,GGCCCTTA,-0.184 ± 0.063
2,ACGTAATA,-0.268 ± 0.026
3,AGGGTTCC,-0.233 ± 0.011
4,CCGGCGAC,0.143 ± 0.06
5,ACAATAAC,0.0418 ± 0.034
6,GCAACTCA,-0.0217 ± 0.065
7,CTACCCAG,-0.302 ± 0.024
8,CCGCATCC,-0.174 ± 0.075
9,TAGCCTGA,-0.2453 ± 0.0021
10,CTGAAGCA,-0.141 ± 0.0054
11,ACAAAAGG,0.0677 ± 0.051
12,ATTATAGA,-0.125 ± 0.035
13,CACTTAGG,0.117 ± 0.04
14,CGGTTACG,-0.0824 ± 0.064
15,CTCTTCGC,0.186 ± 0.037
16,CAGGGGAG,-0.251 ± 0.039
17,ACTTGCCA,0.28202 ± 3.5e-05
18,CTCATAGC,0.11 ± 0.039
19,AGGGGGAT,-0.262 ± 0.033
20,GAATTTTA,-0.0119 ± 0.058
21,ATGTGAGG,0.28 ± 0.041
22,ACTAGAAC,-0.0532 ± 0.0099

# — the supplement of paper PMC4166925
